Some of the results follow.
Key:
Experiment in all cases: glycan array binding signal (z-score within array); higher = stronger binding
Conditions in all cases: glycan notation: IUPAC condensed, linker removed
[1] = molecular target: Fuc(a1-2)Gal
Procedure, shortened: (§1)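 Columns mapping to the same glycan were averaged after glycan names were converted to IUPAC-condensed notation. The data come from 3228 arrays in the Consortium for Functional Glycomics database, limited to those with an available protein sequence. Binding is reported as a within-array Z-score averaged across arrays of one protein sequence and across linkers.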

[2] = molecular target: Fuc(a1-2)Gal(b1-3)GalNAc
Procedure, shortened: as §1

[3] = molecular target: Fuc(a1-2)Gal(b1-3)GalNAc(b1-3)Gal
Procedure, shortened: as §1

[4] = molecular target: Fuc(a1-2)Gal(b1-3)GalNAc(b1-3)Gal(a1-4)Gal(b1-4)Glc
Procedure, shortened: as §1

[5] = molecular target: Fuc(a1-2)Gal(b1-3)GalNAc(b1-3)Gal(b1-4)Glc
Procedure, shortened: as §1

[6] = molecular target: Fuc(a1-2)Gal(b1-3)GalNAc(b1-4)[Neu5Ac(a2-3)]Gal(b1-4)Glc
Procedure, shortened: as §1

[7] = molecular target: Fuc(a1-2)Gal(b1-3)[Fuc(a1-4)]GlcNAc
Procedure, shortened: as §1

[8] = molecular target: Fuc(a1-2)Gal(b1-4)Glc
Procedure, shortened: as §1

[9] = molecular target: Fuc(a1-2)Gal(b1-4)Glc6S
Procedure, shortened: as §1

[10] = molecular target: Fuc(a1-2)Gal(b1-4)GlcNAc
Procedure, shortened: as §1

[11] = molecular target: Fuc(a1-2)Gal(b1-4)GlcNAc(b1-3)Gal(b1-4)GlcNAc
Procedure, shortened: as §1

[12] = molecular target: Fuc(a1-2)Gal(b1-4)GlcNAc(b1-3)Gal(b1-4)GlcNAc(b1-3)Gal(b1-4)GlcNAc
Procedure, shortened: as §1

[13] = molecular target: Fuc(a1-2)Gal(b1-4)GlcNAc6S
Procedure, shortened: as §1

[14] = molecular target: Fuc(a1-2)Gal(b1-4)[Fuc(a1-3)]GalNAc(b1-3)Gal(b1-4)[Fuc(a1-3)]GlcNAc
Procedure, shortened: as §1

[15] = molecular target: Fuc(a1-2)Gal(b1-4)[Fuc(a1-3)]GalNAc(b1-3)Gal(b1-4)[Fuc(a1-3)]GlcNAc(b1-3)Gal(b1-4)[Fuc(a1-3)]GalNAc
Procedure, shortened: as §1

[16] = molecular target: Fuc(a1-2)Gal(b1-4)[Fuc(a1-3)]GlcNAc
Procedure, shortened: as §1

[17] = molecular target: Fuc(a1-2)Gal6S(b1-4)Glc
Procedure, shortened: as §1

[18] = molecular target: Fuc(a1-2)Gal6S(b1-4)Glc6S
Procedure, shortened: as §1

[19] = molecular target: Fuc(a1-2)Gal6S(b1-4)GlcNAc
Procedure, shortened: as §1

[20] = molecular target: Fuc(a1-2)GlcNAc
Procedure, shortened: as §1

[21] = molecular target: Fuc(a1-2)[Gal(a1-3)]Gal
Procedure, shortened: as §1

[22] = molecular target: Fuc(a1-2)[Gal(a1-3)]Gal(b1-3)GlcNAc
Procedure, shortened: as §1

[23] = molecular target: Fuc(a1-2)[Gal(a1-3)]Gal(b1-4)Glc
Procedure, shortened: as §1

[24] = molecular target: Fuc(a1-2)[Gal(a1-3)]Gal(b1-4)GlcNAc
Procedure, shortened: as §1

[25] = molecular target: Fuc(a1-2)[Gal(a1-3)]Gal(b1-4)[Fuc(a1-3)]GlcNAc
Procedure, shortened: as §1

[26] = molecular target: Fuc(a1-2)[Gal(a1-4)]Gal(b1-4)GalNAc
Procedure, shortened: as §1

[27] = molecular target: Fuc(a1-2)[GalNAc(a1-3)]Gal
Procedure, shortened: as §1

[28] = molecular target: Fuc(a1-2)[GalNAc(a1-3)]Gal(b1-3)GlcNAc
Procedure, shortened: as §1

[29] = molecular target: Fuc(a1-2)[GalNAc(a1-3)]Gal(b1-4)Glc
Procedure, shortened: as §1

[30] = molecular target: Fuc(a1-2)[GalNAc(a1-3)]Gal(b1-4)GlcNAc
Procedure, shortened: as §1

B1: IDGF2 (Drosophila melanogaster), Q9V3D4 (protein)
chain: MKAWIWFTFVACLFAASTEAASNLVCYYDSSSYTREGLGKLLNPDLEIALQFCSHLVYGYAGLRGENLQAYSMNENLDIYKHQFSEVTSLKRKYPHLKVLLSVGGDHDIDPDHPNKYIDLLEGEKVRQIGFIRSAYDLVKTYGFDGLDLAYQFPKNKPRKVHGDLGLAWKSIKKLFTGDFIVDPHAALHKEQFTALVRDVKDSLRADGFLLSLTVLPNVNSTWYFDIPALNGLVDFVNLATFDFLTPARNPEEADYSAPIYHPDGSKDRLAHLNADFQVEYWLSQGFPSNKINLGVATYGNAWKLTKDSGLEGVPVVPETSGPAPEGFQSQKPGLLSYAEICGKLSNPQNQFLKGNESPLRRVSDPTKRFGGIAYRPVDGQITEGIWVSYDDPDSASNKAAYARVKNLGGVALFDLSYDDFRGQCSGDKYPILRAIKYRLHHHHHH
glycan array binding signal (z-score) [1]: -0.319
glycan array binding signal (z-score) [2]: -0.317
glycan array binding signal (z-score) [3]: -0.519
glycan array binding signal (z-score) [4]: -0.27
glycan array binding signal (z-score) [5]: -0.012
glycan array binding signal (z-score) [6]: -0.23
glycan array binding signal (z-score) [7]: -0.463
glycan array binding signal (z-score) [8]: -0.098
glycan array binding signal (z-score) [9]: 0.468
glycan array binding signal (z-score) [10]: -0.274
glycan array binding signal (z-score) [11]: -0.26
glycan array binding signal (z-score) [12]: -0.398
glycan array binding signal (z-score) [13]: -0.346
glycan array binding signal (z-score) [14]: -0.095
glycan array binding signal (z-score) [15]: 0.126
glycan array binding signal (z-score) [16]: -0.166
glycan array binding signal (z-score) [17]: -0.159
glycan array binding signal (z-score) [18]: -0.583
glycan array binding signal (z-score) [19]: -0.274
glycan array binding signal (z-score) [20]: -0.432
glycan array binding signal (z-score) [21]: -0.151
glycan array binding signal (z-score) [22]: 8.27
glycan array binding signal (z-score) [23]: 6.99
glycan array binding signal (z-score) [24]: 7.65
glycan array binding signal (z-score) [25]: -0.366
glycan array binding signal (z-score) [26]: -0.291
glycan array binding signal (z-score) [27]: -0.184
glycan array binding signal (z-score) [28]: -0.223
glycan array binding signal (z-score) [29]: 0.052
glycan array binding signal (z-score) [30]: -0.296

— the supplement of paper PMC8728848
